No constants are given. Whether binding was seen depends on the method and setting. Binding seen in cells or lysates may run through a third protein. Some results given as binding are weak or reduced against the parent protein; the word gives no strength. One block for each molecule: values may come before it.
Columns and labels:
[1] = biological target: Proline rich coiled-coil 2A (PRRC2A) with a 3×flag tag, from Prrc2a-flag knock-in mice (mouse) (UniProt Q7TSC1); assay: co-IP; P20 Prrc2a-flag testis lysate (150 mM NaCl, 10 mM HEPES pH 7.6, 2 mM EDTA, 0.5% NP-40, 0.5 mM DTT, RNasin); anti-Flag or IgG control on Protein G magnetic beads, overnight 4 °C; 8 washes in NT2 buffer (200 mM NaCl) with RNase inhibitor; Western blot
[2] = biological target: Proline rich coiled-coil 2A (PRRC2A) with a 3×flag tag, from Prrc2a-flag knock-in mice (mouse) (UniProt Q7TSC1); assay: co-IP; as a1 but with RNase A: RNasin and DTT replaced by 10 mg/mL RNase A in the lysis buffer; beads treated with 10 mg/mL RNase A in NT2 buffer for 20 min at room temperature; Western blot
[3] = biological target: Proline rich coiled-coil 2A (PRRC2A) with a 3×flag tag, from Prrc2a-flag knock-in mice (mouse) (UniProt Q7TSC1); assay: co-IP; P20 Prrc2a-flag testis lysate (150 mM NaCl, 10 mM HEPES pH 7.6, 2 mM EDTA, 0.5% NP-40, 0.5 mM DTT, RNasin); anti-Flag or IgG control on Protein G magnetic beads, overnight 4 °C; 8 washes in NT2 buffer (200 mM NaCl) with RNase inhibitor; Western blot; remark: listed apart in the source

Sequences of proteins named here, by UniProt entry; tags and fusion partners are left off.
UniProt Q7TSC1: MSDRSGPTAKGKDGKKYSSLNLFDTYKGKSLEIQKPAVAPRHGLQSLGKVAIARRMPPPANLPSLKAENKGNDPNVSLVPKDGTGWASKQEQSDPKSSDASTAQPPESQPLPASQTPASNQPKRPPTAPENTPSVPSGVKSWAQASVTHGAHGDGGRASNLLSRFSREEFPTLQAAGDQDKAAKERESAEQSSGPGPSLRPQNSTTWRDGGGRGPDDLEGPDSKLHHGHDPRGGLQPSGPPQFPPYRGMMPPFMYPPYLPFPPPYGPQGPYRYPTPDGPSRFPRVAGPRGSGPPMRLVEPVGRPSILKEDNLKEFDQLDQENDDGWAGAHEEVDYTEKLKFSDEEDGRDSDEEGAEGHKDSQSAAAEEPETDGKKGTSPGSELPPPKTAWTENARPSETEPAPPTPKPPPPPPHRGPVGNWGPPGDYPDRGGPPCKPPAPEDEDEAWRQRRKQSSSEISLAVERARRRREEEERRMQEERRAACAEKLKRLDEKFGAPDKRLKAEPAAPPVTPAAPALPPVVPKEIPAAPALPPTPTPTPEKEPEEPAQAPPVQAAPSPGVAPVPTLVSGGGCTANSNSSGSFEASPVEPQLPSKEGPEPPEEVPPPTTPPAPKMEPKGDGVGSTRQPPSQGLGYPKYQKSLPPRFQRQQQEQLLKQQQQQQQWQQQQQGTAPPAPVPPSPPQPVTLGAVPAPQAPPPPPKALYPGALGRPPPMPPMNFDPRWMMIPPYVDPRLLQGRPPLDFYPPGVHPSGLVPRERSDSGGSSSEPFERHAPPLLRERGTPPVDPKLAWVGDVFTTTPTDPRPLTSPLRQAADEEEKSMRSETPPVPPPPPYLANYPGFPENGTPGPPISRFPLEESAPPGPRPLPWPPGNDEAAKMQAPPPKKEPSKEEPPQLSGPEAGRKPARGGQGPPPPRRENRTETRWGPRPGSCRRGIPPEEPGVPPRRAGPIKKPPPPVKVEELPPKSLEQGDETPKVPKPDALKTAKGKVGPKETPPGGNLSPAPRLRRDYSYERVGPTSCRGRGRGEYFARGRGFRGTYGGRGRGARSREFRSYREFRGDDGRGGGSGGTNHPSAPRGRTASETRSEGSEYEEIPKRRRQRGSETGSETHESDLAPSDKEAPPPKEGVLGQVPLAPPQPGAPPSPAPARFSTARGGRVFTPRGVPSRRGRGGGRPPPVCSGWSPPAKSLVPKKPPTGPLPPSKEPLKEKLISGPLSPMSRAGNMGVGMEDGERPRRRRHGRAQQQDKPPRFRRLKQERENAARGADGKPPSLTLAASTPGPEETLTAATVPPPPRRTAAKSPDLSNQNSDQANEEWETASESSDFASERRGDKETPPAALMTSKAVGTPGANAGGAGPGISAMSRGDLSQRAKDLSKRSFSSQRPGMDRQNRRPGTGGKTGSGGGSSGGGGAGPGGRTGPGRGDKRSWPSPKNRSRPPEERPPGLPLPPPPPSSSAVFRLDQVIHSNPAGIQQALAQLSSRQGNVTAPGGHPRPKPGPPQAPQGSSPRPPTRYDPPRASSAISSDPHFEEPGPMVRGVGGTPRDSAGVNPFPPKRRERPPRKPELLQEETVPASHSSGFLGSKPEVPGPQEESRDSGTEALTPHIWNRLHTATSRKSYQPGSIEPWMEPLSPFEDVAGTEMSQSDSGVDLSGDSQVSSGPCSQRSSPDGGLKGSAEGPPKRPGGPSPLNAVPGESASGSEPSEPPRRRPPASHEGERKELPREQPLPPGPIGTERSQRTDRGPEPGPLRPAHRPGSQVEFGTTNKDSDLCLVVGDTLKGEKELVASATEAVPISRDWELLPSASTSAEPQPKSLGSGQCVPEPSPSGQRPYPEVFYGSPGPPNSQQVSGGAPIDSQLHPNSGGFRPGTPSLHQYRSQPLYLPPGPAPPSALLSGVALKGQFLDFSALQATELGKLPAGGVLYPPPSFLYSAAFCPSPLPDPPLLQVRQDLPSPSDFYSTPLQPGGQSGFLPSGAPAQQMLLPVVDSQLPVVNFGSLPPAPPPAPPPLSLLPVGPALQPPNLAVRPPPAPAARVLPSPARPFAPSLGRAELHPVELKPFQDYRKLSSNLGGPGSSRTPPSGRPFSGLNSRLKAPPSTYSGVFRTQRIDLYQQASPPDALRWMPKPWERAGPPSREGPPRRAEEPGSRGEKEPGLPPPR
UniProt P29341: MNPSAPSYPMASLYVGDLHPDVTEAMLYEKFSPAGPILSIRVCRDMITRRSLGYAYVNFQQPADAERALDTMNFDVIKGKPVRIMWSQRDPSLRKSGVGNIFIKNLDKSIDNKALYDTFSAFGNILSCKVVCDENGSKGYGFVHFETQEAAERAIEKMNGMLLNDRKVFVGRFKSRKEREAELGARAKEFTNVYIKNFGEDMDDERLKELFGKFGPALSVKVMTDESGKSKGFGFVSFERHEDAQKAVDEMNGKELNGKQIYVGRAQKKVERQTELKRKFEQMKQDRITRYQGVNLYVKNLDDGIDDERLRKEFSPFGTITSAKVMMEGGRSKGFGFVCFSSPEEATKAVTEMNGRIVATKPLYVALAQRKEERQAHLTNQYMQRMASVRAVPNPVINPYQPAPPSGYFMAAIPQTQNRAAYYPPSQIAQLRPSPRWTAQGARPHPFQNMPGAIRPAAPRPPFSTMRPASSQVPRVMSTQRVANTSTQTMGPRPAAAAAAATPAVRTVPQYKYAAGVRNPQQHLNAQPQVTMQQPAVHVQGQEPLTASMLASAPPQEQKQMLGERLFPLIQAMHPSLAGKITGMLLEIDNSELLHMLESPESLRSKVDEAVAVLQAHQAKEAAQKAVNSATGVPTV
UniProt Q9JMB7: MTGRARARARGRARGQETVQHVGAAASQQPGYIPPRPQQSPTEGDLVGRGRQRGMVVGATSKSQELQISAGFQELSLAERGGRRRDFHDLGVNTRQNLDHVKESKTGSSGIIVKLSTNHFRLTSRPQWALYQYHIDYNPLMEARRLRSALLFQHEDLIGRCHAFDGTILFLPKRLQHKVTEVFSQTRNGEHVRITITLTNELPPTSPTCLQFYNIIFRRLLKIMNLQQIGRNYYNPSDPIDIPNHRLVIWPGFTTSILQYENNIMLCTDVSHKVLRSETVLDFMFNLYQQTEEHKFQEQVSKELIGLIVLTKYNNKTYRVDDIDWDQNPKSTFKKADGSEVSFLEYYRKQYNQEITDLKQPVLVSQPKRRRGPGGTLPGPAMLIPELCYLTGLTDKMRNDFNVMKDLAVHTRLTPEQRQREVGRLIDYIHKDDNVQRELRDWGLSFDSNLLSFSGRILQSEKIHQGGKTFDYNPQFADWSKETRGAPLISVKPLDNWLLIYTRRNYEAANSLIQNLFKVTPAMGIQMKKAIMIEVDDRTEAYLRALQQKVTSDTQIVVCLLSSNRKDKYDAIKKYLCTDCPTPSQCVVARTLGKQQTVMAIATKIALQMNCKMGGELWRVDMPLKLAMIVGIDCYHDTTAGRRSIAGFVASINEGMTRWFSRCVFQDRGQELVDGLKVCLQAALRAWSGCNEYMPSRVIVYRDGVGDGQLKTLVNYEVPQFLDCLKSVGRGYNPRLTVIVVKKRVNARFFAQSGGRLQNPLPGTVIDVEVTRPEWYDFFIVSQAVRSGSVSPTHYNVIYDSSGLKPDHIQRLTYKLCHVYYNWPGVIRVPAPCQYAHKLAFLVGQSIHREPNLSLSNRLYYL
UniProt Q80XI3: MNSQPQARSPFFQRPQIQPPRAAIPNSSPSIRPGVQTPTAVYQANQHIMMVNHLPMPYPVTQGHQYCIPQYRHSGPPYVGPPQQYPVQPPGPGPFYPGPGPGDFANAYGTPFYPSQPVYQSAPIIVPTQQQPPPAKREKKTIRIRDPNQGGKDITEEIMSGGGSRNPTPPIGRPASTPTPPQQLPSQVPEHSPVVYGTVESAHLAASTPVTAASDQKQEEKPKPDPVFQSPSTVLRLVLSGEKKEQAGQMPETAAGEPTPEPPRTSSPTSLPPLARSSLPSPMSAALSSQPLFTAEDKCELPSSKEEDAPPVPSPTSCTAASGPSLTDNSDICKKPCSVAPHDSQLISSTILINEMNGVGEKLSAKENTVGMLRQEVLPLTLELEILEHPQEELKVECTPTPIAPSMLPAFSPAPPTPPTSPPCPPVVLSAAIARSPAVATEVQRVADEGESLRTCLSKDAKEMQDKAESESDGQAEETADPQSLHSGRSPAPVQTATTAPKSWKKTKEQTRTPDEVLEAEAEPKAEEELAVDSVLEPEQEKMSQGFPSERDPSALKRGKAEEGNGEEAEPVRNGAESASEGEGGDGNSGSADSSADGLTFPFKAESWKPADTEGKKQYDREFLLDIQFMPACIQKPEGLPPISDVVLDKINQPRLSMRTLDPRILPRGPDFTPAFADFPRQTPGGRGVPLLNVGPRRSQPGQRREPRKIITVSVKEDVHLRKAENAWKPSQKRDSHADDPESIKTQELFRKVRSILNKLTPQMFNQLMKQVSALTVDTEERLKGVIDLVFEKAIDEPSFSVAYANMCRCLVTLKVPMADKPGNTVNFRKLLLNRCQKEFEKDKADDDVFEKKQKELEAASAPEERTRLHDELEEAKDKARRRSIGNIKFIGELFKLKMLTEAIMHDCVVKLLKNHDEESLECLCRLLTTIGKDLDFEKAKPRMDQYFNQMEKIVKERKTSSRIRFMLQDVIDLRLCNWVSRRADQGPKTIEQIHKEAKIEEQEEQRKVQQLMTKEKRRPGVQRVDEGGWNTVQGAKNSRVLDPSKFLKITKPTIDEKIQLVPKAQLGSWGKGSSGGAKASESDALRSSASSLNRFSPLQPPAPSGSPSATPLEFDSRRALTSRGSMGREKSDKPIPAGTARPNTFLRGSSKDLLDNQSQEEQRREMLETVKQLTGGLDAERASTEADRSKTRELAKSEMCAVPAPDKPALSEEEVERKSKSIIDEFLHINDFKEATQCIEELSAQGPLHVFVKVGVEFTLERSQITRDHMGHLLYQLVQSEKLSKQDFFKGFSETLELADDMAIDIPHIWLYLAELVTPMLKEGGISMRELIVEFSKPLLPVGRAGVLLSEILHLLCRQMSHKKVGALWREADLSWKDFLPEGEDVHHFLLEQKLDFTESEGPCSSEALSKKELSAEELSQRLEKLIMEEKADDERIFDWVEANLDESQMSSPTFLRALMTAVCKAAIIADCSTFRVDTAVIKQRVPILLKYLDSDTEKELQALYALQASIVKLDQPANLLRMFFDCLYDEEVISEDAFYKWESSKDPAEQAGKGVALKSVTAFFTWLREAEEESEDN
UniProt Q61584: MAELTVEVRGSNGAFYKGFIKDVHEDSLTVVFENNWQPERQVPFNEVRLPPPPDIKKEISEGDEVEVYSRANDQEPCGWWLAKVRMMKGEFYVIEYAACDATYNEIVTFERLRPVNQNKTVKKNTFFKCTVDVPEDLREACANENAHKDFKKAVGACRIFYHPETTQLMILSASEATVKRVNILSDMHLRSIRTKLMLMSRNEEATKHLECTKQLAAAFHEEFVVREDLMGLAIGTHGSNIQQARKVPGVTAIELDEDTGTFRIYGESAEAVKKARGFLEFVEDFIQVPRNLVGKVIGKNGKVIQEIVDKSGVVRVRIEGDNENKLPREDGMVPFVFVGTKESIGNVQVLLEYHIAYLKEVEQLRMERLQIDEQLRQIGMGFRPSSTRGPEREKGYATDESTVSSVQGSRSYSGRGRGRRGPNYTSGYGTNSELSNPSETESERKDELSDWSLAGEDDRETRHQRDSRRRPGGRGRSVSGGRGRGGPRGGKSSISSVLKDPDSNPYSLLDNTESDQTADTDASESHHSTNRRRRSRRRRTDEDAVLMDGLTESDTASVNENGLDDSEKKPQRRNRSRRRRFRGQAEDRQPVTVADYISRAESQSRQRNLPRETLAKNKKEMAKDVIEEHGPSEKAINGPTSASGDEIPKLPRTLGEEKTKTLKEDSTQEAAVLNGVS

Molecule: poly(A) tail binding protein C1 (PABPC1) (from UniProt P29341 1-636)
binding [1]: binds | binding [2]: binds

Molecule: MIWI (from UniProt Q9JMB7 1-862)
binding [1]: binds

Molecule: eukaryotic translation initiation factor 4 gamma 3 (EIF4G3) (from UniProt Q80XI3 1-1579)
binding [1]: binds | binding [2]: binds

Molecule: fragile-X mental retardation autosomal 1 (FXR1) (from UniProt Q61584 1-677)
binding [1]: binds | binding [2]: binds

B3: DCP1A (protein, UniProt Q91YD3 1-602)
chain: MALSCSTVRPRRRGSALRSKMELLSRAEQEMSLAALKQHDPYITSIADLTGQVALYTFCPKANQWEKTDIEGTLFVYRRSASPYHGFTIVNRLNMHNLVEPVNKDLEFQLHEPFLLYRNASLSIYSIWFYDKNDCHRIAKLMADVVEEETRRSQQAARDKQSPSQANGCSDQRPIDILEMLSRAKDEYERNQMGGSNISSPGLQPSTQLSNLGSTETLEETPSGSQDKSAPSGHKHLTVEELFGTSLPKEQPTAMGLESEDTDKLLGDASQKEPSSFLPFPFEQSGGAPQSENLGIHSAAHHTVQPEVSTPVLITPASIAQSGDKHPPSYTLPLSPVLSPTLPAEAPTTQVPHLPRNSTMIQAVKTTPRQKSPLLNQPVPELSHSSLVASQSPFRAPVSLANPAGTALPSVDLLQKLRLTPQHDQIQAQPLGKGTMAPSFSSAAGQLATPESFIEPSSKTAAARAAVSASLSNMVLAPTLQSMQQNQDPEVFSQPKVLPSAIPIAGSPLVPATTTAVSSVLLSPSVFQQTVPRAADLERKASSPSPLTVGTAESQRKPSIILSKSQLQDTLIHLIKNDSSFLSTLHAVYLQVLTKNKDNHNL
binding [3]: no binding

Other lines, results leading:

binding [3]: binds
B1: DDX4 (protein, UniProt Q61496 1-702)
chain: MGDEDWEAEILKPHVSSYVPVFEKDKYSSGANGDTFNRTSASSDIGESSKKENTSTTGGFGRGKGFGNRGFLNNKFEEGDSSGFWKESNNDCEDNQTRSRGFSKRGGCQDGNDSEASGPFRRGGRGSFRGCRGGFGLGRPNSESDQDQGTQRGGGLFGSRKPAASDSGNGDTYQSRSGSGRGGYKGLNEEVVTGSGKNSWKSETEGGESSDSQGPKVTYIPPPPPEDEDSIFAHYQTGINFDKYDTILVEVSGHDAPPAILTFEEANLCQTLNNNIAKAGYTKLTPVQKYSIPIVLAGRDLMACAQTGSGKTAAFLLPILAHMMRDGITASRFKELQEPECIIVAPTRELINQIYLEARKFSFGTCVRAVVIYGGTQFGHSVRQIVQGCNILCATPGRLMDIIGKEKIGLKQVKYLVLDEADRMLDMGFGPEMKKLISCPGMPSKEQRQTLLFSATFPEEIQRLAGDFLKSSYLFVAVGQVGGACRDVQQTILQVGQYSKREKLVEILRNIGDERTMVFVETKKKADFIATFLCQEKISTTSIHGDREQREREQALGDFRCGKCPVLVATSVAARGLDIENVQHVINFDLPSTIDEYVHRIGRTGRCGNTGRAISFFDTDSDNHLAQPLVKVLSDAQQDVPAWLEEIAFSTYVPPSFSSSTRGGAVFASVDTRKNYQGKHTLNTAGISSSQAPNPVDDESWD

binding [3]: no binding
B2: PATL1 (protein, UniProt Q3TC46 1-770)
chain: MFRYESLEDCPLDEDEDAFQGLGEEDEEIDQFNDDTFGSGAVDDDWQEAHERLAELEEKLPVAADEQTGNGERDEMDLLGDHEENLAERLSKMVIENELEDPAIMRAVQTRPVLQPQPGSLNSSIWDGSEVLRRIRGPLLAQEMPTVSVLEYALPQRPLQGPEDDRDLSERALPRRSTSPIIGSPPVRAVPIGTPPKQMAVPSFNQQILCPKPVHVRPPMPPRYPAPYGERISPNQLCSVPNSSLLGHPFPPNVPPVLSPLQRAQLLGGAQLQPGRMSPSQFARVPGFVGSPLAAMNPKLLQGRVGQMLPPAPSFRAFFSAPPPATPPPQQHPPGPGPHLQNLRPQAPMFRADTTHLHPQHRRLLHQRQLQSRNQHRNLNGTGDRGGHQSSHQDHLRKDPYANLMLQREKDWVSKIQMMQLQSTDPYLDDFYYQNYFEKLEKLSAAEEIQGDGPKKERTKLITPQVAKLEHAYQPVQFEGSLGKLTVSSVNNPRKMIDAVVTSRSEDDETKEKQVRDKRRKTLVIIEKTYSLLLDVEDYERRYLLSLEEERPALMDERKHKICSMYDNLRGKLPGQERPSDDHFVQIMCIRKGKRMVARILPFLSTEQAADILMATARNLPFLIKKDAQDEVLPCLLSPFSLLLYHLPSVTVTSLLQQLMNLPQSASAPAPSNSHLTAVLQNKFGLSLLLILLSRGEDLQSSDPAIESTQNNQWTEVMFMATRELLRIPQAALAKPISIPTNLVSLFSRYVDRQKLNLLETKLQLVQGIR

Reference: paper PMC10039029
